# Measurements as given in PubChem BioAssay AID624202 (National Center for Advancing Translational Sciences (NCATS), 2012).
# Hit rate of the full screen: of about 380,000 compounds, about 4,000 (1.1%) were called active. This list was built around the results that the source calls inconclusive (neither active nor inactive); the mix of calls is not that of the screen. Calls come from the whole dose curve; as a rule, active = well fitted activation curve with a large enough effect; inconclusive = small, poorly fitted or top-dose-only effect; inactive = no such curve, though single readings can be large or run the other way. Where the call is inconclusive, the potency comes from a doubtful curve fit.
# Experiment: qHTS Assay to Identify Small Molecule Activators of BRCA1 Expression; note: nearly all actives have a fitted effect of over 80% in size
# Settings: MCF7-BRCA1-FFLuc reporter, luminescence, 48 h; activation: at 46.1 µM (top of the series), scaled: vehicle 0%, 10 µM genistein 100% unless noted
# Outline: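 Compounds are tested at multiple concentrations on MCF7 BRCA1-luciferase reporter cells seeded at 2000 per well; after 48 h, a single luminescence end-point is taken and curves fitted to the normalized data.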
# Potency is the fitted concentration of half-maximal effect; tags give direction and shape of the fitted curve.
SMILES,Potency,activation
O=C(Cn1nnc(-c2ccccc2Cl)n1)N1CCCCC1,"inconclusive: 1.78 µM [activator, full curve, poor fit]",
CN1CC(=O)N(CC(=O)Nc2ccc(OCc3ccccc3)cc2)C1=O,"inconclusive: 12.6 µM [activator, partial curve, poor fit]",
COc1cc(CNC(=O)C2CC2)ccc1OCc1ccccc1,active: 12.6 µM,
O=C(Nc1ccc(Oc2cccnc2)cc1)c1ccccc1Cl,inactive,
O=C(Nc1ccc(N2CCOCC2)cc1)C1CCN(C(=O)OCc2ccccc2)CC1,active: 2.82 µM,
Cc1nc(C)c(C(=O)Nc2ncc([N+](=O)[O-])s2)o1,,inconclusive: -66.9% [activator]
O=C(NNc1ccccc1)OCc1ccccc1,active: 11.2 µM,
Cc1c(C(=O)Nc2cccc(F)c2)cnn1-c1ccccc1,"inconclusive: 1.58 µM [activator, partial curve, poor fit]",
O=C(NC(=S)NCc1nc2ccccc2[nH]1)c1ccccc1F,"inconclusive: 12.6 µM [activator, partial curve, poor fit]",
O=[N+]([O-])c1ccc2nc(-c3ccc(OC(F)F)cc3)cn2c1,"inconclusive: 1.26 µM [activator, full curve, poor fit]",
CC(=O)c1cc(C#N)c(SCC(=O)C(C)(C)C)nc1C,"inconclusive: 2 µM [activator, full curve, poor fit]",
Cc1cccc(-c2nc(C)c(CCNC(=O)c3cccs3)s2)c1,inactive,
O=C(O)c1ccc(-c2nc(-c3ccccc3)cs2)cc1,"inconclusive: 1.26 µM [activator, partial curve, poor fit]",
COc1cc(NC(=O)c2cccc(Br)c2)nc(OC)n1,"inconclusive: 11.2 µM [activator, partial curve, poor fit]",
COc1cccc(OC)c1OCC(C)CNCC1CCCO1 (stereo not given),inactive,
O=C(O)c1ccc(-c2noc(-c3cccc(Cl)c3)n2)cc1,"inconclusive: 2.82 µM [activator, full curve, poor fit]",
c1ccc2oc(-c3csc(N4CCOCC4)n3)cc2c1,"inconclusive: 2.51 µM [activator, partial curve, poor fit]",
COc1ccc2cc(CCOC3CCCCO3)ncc2c1 (stereo not given),,inconclusive: 47.9% [activator]
COc1ccc(NC(=O)Nc2ccccc2F)cc1,"inconclusive: 0.631 µM [activator, full curve, poor fit]",
Cc1cccc(N(CC(=O)NCCSc2ccc(Cl)cc2)S(C)(=O)=O)c1C,inactive,
Cc1cnc(NC(=O)c2ccc3c(c2)OCCO3)s1,,inconclusive: -100% [activator]
Cc1ccc(NC(=O)C2CCCN(c3ncccn3)C2)cc1C (stereo not given),"inconclusive: 10 µM [activator, partial curve, poor fit]",
O=C(c1ccco1)N1CCC(c2nc3c(nnn3Cc3c(Cl)cccc3Cl)c(=O)[nH]2)CC1,inactive,
COc1cc2nc(Nc3ccc(C)c(C)c3)nc(N)c2cc1OC,inactive,
Cc1ccnc(NC(=S)NC(=O)c2ccco2)c1,"inconclusive: 7.08 µM [activator, full curve, poor fit]",

SMILES,Potency,activation
CC(=O)c1ccc(N2Cc3ccccc3C2=NC(=O)c2cccs2)cc1,"inconclusive: 0.631 µM [activator, full curve, poor fit]",
CC(NC(=O)CCc1nnc(CCCc2ccccc2)o1)c1ccccc1 (stereo not given),"inconclusive: 22.4 µM [activator, single point]",
O=C(c1cccc2ccccc12)N1CCN(S(=O)(=O)c2ccccc2)CC1,inactive,
CC(=O)Nc1ccc(S(=O)(=O)N2CCN(C)CC2)cc1,inactive,
O=C(Nc1ccc(N2CCN(C(=O)c3ccco3)CC2)c(Cl)c1)c1cccs1,inactive,
CCOC(=O)c1c(C)[nH]c(N=Nc2cccc(C)c2)c1C,"inconclusive: 3.16 µM [activator, partial curve, poor fit]",
O=C(Nc1nccs1)c1ccc(-c2ccccc2[N+](=O)[O-])o1,active: 3.55 µM,
Cc1cc(-c2ccc(Cl)cc2Cl)c(C#N)c(=O)[nH]1,"inconclusive: 22.4 µM [activator, single point]",
CN1CCc2c(n(CC(O)CN3C(=O)c4ccccc4S3(=O)=O)c3ccccc23)C1=O (stereo not given),inactive,
COc1ccc(-c2cc3ccccc3n2CC(O)CN2CCN(CCO)CC2)cc1 (stereo not given),inactive,
CCn1c(=N)n(CC(=O)c2cccc([N+](=O)[O-])c2)c2ccccc21,"inconclusive: 5.62 µM [activator, full curve, poor fit]",
O=C(Nc1nc(-c2ccc(F)c(F)c2)cs1)C1=COCCO1,"inconclusive: 7.08 µM [activator, partial curve, poor fit]",
Cc1cccc(NC(=O)c2nc[nH]c2C(=O)N[C@@H](CC(C)C)C(=O)OCc2ccccc2)c1,inactive,
CC(C)CCOc1ccc(C(=O)N2CCN(c3ncccn3)CC2)cc1,inactive,
Cc1ccc(-c2nc(-c3cccnc3)no2)cc1,"inconclusive: 0.631 µM [activator, full curve, poor fit]",
CCCc1cnc(N2CCN(S(C)(=O)=O)CC2)nc1,"inconclusive: 15.8 µM [activator, partial curve, poor fit]",
Nc1nc(NC(=O)c2ccccc2)nn1-c1ccccc1,"inconclusive: 11.2 µM [activator, partial curve, poor fit]",
COc1ccc(-c2noc(-c3cccs3)n2)cc1OC,"inconclusive: 1.26 µM [activator, full curve, poor fit]",
CC(C)Cc1nnc(NC(=O)c2cc3c(s2)CCC3)s1,"inconclusive: 3.98 µM [activator, full curve, poor fit]",
CC1CCCCC1=NNC(=O)c1ccccc1 (stereo not given),"inconclusive: 35.5 µM [activator, single point]",
CCc1cccc(NC(=O)COC(=O)c2ccccc2OCc2ccccc2Br)c1,inactive,
COc1ccc(NC(=O)NCCCN2CCN(c3ccccc3F)CC2)cc1,inactive,
O=c1cc(-c2ccsc2)oc2ccc(-c3ccc4cc[nH]c4c3)cc12,active: 5.62 µM,
Cc1ccccc1NC(=O)Cn1c(=O)n(CCC(=O)N2CCc3ccccc3C2)c(=O)c2ccccc21,inactive,
O=C(O)c1ccccc1-c1ccc(/C=C2\SC(=O)N(c3ccccc3)C2=O)o1,"inconclusive: 14.1 µM [activator, partial curve, poor fit]",

SMILES,Potency,activation
CCOc1ccc(N2Cc3ncccc3C2=O)cc1,"inconclusive: 1.58 µM [activator, partial curve, poor fit]",
O=C(Oc1ccc(Cl)cc1)N1CCCCC1,"inconclusive: 15.8 µM [activator, partial curve, poor fit]",
Fc1ccc2nc3n(c2c1F)CCCCCC3,inactive,
O=C(Nc1nc(-c2ccccc2)cs1)C1CCCO1 (stereo not given),"inconclusive: 17.8 µM [activator, single point]",
COc1cccc(/C=C2\SC(N3CCC(C)CC3)=NC2=O)c1OC,inactive,
O=C(/C=C/c1ccc(Cl)c(Cl)c1)NC1=NCCS1,"inconclusive: 7.08 µM [activator, partial curve, poor fit]",
Cc1cc(C)c(CN2CCN(C(=O)Cn3cnc4c(NCc5ccccc5)ncnc43)CC2)c(C)c1,inactive,
COc1ccccc1NC(=S)NNC(=S)Nc1ccc(OC(F)F)cc1,inactive,
Cc1ccc(NC(=O)c2oc3ccccc3c2NC(=O)C2CCCO2)cc1C (stereo not given),"inconclusive: 2.82 µM [activator, full curve, poor fit]",
C[C@@H](NCCCn1ccc(NC(=O)OCc2ccccc2)nc1=O)c1cccc2ccccc12,inactive,
O=C(Cc1ccccc1)NC(=S)Nc1ccc2oc(-c3ccccc3F)nc2c1,"inconclusive: 0.631 µM [activator, full curve, poor fit]",
Cc1cc(N(C)C)ccc1/C=C/c1ccnc2ccccc12,"inconclusive: 14.1 µM [activator, single point]",
N#Cc1ccccc1Oc1ccc(S(=O)(=O)N2CCCCC2)cn1,active: 10 µM,
O=C(c1cccs1)N1CCc2c([nH]c3ccccc23)C1c1ccccn1 (stereo not given),inactive,
CC(=O)COc1ccc2c3c(c(=O)oc2c1)CCCC3,"inconclusive: 12.6 µM [activator, partial curve, poor fit]",
CCOC(=O)c1ccc(NC(=O)C(CC)CC)cc1,"inconclusive: 14.1 µM [activator, single point]",
O=C(NC(=S)Nc1ccccn1)c1ccccc1,"inconclusive: 0.631 µM [activator, full curve, poor fit]",
CC(C)c1ccc(CCNC(=O)c2ccc([N+](=O)[O-])cc2)cc1,inactive,
O=c1cc(-c2ccccc2F)oc2ccccc12,active: 12.6 µM,
ClC(=Nc1cccc2ccccc12)N(c1ccccc1)c1ccccc1,inactive,
O=C(N/N=C/c1ccccc1F)NC12CC3CC(CC(C3)C1)C2,active: 5.01 µM,
CCCc1nc2ccc(NC(C)=O)cc2c(=O)n1Cc1ccc(Cl)cc1,"inconclusive: 2.51 µM [activator, full curve, poor fit]",
CSc1ccc(CN2CCC(C)(Oc3cnc(Cl)c4ccccc34)C2)cc1 (stereo not given),inactive,
COc1ccc2nc(N3CCOCC3)cc(C)c2c1,"inconclusive: 2.51 µM [activator, partial curve, poor fit]",
O=C(Nc1nccs1)c1ccc(N2C(=O)[C@@H]3[C@H](C2=O)[C@H]2C=C[C@@H]3C2)cc1,"inconclusive: 12.6 µM [activator, partial curve, poor fit]",
